Source: the supplement of paper PMC3334620
In all, about 33,000 sequences were measured (“E-score (-0.5 to 0.5)”: median about -0.013, highest 2% from about 0.3 on). Some of the results follow.

Each sequence was assayed against T1, Msn1 (UniProt P22148) (assay: PBM E-score (8-mer binding enrichment) (E-score (-0.5 to 0.5)); higher = stronger / more preferred TF binding; most listed sequences are background and not binding sites). Conditions: protein concentration: 200 nM; construct: GST-full length.
T1 sequence: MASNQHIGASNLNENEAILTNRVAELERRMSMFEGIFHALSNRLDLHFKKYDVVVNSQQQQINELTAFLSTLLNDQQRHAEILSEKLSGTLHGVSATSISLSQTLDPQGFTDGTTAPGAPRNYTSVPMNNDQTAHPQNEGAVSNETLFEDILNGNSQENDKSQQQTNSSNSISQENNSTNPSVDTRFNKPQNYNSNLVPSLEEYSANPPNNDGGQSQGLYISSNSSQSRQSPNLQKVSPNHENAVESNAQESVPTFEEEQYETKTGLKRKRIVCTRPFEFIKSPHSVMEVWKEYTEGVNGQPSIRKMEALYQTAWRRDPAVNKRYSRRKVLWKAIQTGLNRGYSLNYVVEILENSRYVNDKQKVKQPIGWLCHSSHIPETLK
Procedure, shortened: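 E-scores (a modified Wilcoxon-Mann-Whitney statistic) were assigned by the Universal PBM Analysis Suite to every ungapped eight-base word pooled with its reverse complement. The input came from universal all-10-mer Agilent arrays made double-stranded by primer extension and probed with GST-tagged yeast transcription factors at about 100-200 nM. Fluorescent anti-GST detected bound protein, and masliner normalised the scans.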

| Sequence | PBM E-score |
| --- | --- |
| GAATAGCC | -0.116 |
| GAAGGACC | -0.139 |
| ACGGCGTG | -0.0469 |
| AGTGGTTG | 0.102 |
| CGAGTTTC | -0.0216 |
| AATAGGCA | -0.0523 |
| GAGGCTAC | -0.23 |
| ATGAACAA | 9e-05 |
| AACAGCGA | -0.216 |
| AGTGCTTG | -0.0627 |
| CGAATGTC | 0.386 |
| ATTTGCCG | 0.136 |
| AACATACG | 0.0695 |
| CTCTCCTA | -0.316 |
| ACCAATAG | -0.0153 |
| CCTCTGCC | -0.177 |
| AAGCACCA | -0.0725 |
| AATGCCCG | -0.182 |
| CATGGCTC | -0.0129 |
| GGTCAAAA | 0.135 |
| CCCAGGGC | -0.41 |
| CATGTGAA | -0.0733 |

| Sequence | PBM E-score |
| --- | --- |
| CCAATGTC | 0.328 |
| ACCGGACC | 0.025 |
| GGGCCAAC | -0.0687 |
| CTTTGGCA | -0.261 |
| AAAAGGAA | 0.123 |
| AACAGGAT | -0.0582 |
| CTACCTAA | 0.0698 |
| GGAATGTA | 0.0976 |
| GACTCTGC | -0.155 |
| AAAACTAC | 0.21 |
| AGCTGGAC | 0.135 |
| ACCGACCT | -0.0954 |
| CTCCACGC | -0.162 |
| CCCTAGTA | -0.0771 |
| AGGGTGGC | -0.0215 |
| CGCTCGAG | 0.195 |
| GCGTCCCC | -0.251 |
| CATGGTGA | -0.0652 |
| ACTCGCCT | -0.0305 |
| GACTGAGA | 0.092 |
| CTACTCCA | -0.234 |
| GCTACTTA | -0.258 |

| Sequence | PBM E-score |
| --- | --- |
| ATGGCGTA | 0.0141 |
| ACTAACGG | -0.0137 |
| GATAACAA | -0.0321 |
| GATGGCCC | -0.219 |
| GAAGACTA | -0.0534 |
| CTCGCAGC | -0.0721 |
| CGACATAA | 0.286 |
| GAAGTTGC | -0.15 |
| ACCGATGG | 0.00303 |
| AGCTATAC | -0.234 |
| ACGTGTTG | 0.0865 |
| CGTCCCAG | 0.0129 |
| GTAGGCCA | 0.0336 |
| CAGTGGCG | -0.231 |
| AGATGCTC | -0.2 |
| AGGTACTC | -0.0571 |
| CGCATGCC | 0.00255 |
| CACGATCA | 0.0233 |
| ACCTGCGG | 0.0291 |
| ATGGCTCA | -0.00052 |
| AGCTGAAA | 0.117 |
| AGACCTCA | -0.119 |

| Sequence | PBM E-score |
| --- | --- |
| AACCTGAC | 0.00442 |
| AGGACTCA | -0.0648 |
| GACGACTC | -0.147 |
| CCCAACGA | -0.0672 |
| ACCTTAGT | -0.0276 |
| CCAACGCA | -0.108 |
| TAAGCAGA | -0.138 |
| AGTCGGCG | 0.0577 |
| GAAGTTTA | 0.126 |
| ACTCGTGC | -0.214 |
| GAGGGATC | -0.309 |
| ACCTAATA | 0.194 |
| ATCCTAAA | -0.0285 |
| GGACATGA | 0.467 |
| GCAAGTCA | -0.00666 |
| ACTGACAA | 0.249 |
| ACAACTAA | 0.167 |
| CCAGAAGG | -0.103 |
| GTGCTTAA | -0.00137 |
| TAGGATAA | 0.0132 |
| CGCTAACC | -0.084 |
| ATCGTCAC | 0.0421 |

| Sequence | PBM E-score |
| --- | --- |
| GACCTCCC | -0.214 |
| ACATTTTC | 0.337 |
| TCGGGGCA | -0.104 |
| TCATCGGA | 0.0601 |
| ACACGATG | 0.079 |
| AGGAAGAC | 0.0382 |
| GCATTAAC | 0.0679 |
| ACGCCTCA | -0.172 |
| ATCGGCGC | 0.154 |
| GGTATAAC | -0.0602 |
| AAATAAGG | 0.0407 |
| AGCTCCAC | -0.149 |
| CACCAGAG | -0.232 |
| TAGCGACA | 0.24 |
| GCGCCCGA | -0.0361 |
| AGTTTTAG | 0.0289 |
| GTTACTTA | 0.19 |
| AAGACGCA | 0.0389 |
| AACCTAAT | -0.119 |
| AAGCCAGA | 0.00654 |
| AATATGAA | 0.0746 |
| CTGCCTGA | 0.118 |
